From PubChem BioAssay AID1963959 (Molecular Pharmacology Branch, DTP, NCI, 2024) come the findings set out here.

Certain results were filed several times, with different values. The list is limited to them. The source may hold further records. The values listed for one entry are repeats in other runs, samples, wells, individuals or studies. Brackets with × give the number of equal values in this list.

The assay has as its system T-47D spheroids with HUVEC/MSC, viability. The assay can be described thus: Anticancer human tumor T-47D cell line growth inhibition [PI3K].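 Also: spheroids exposed to agents for seven days before reading; percent of DMSO vehicle control luminescence so 100% = untreated growth.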 The following applies: stronger effect = lower value. The source says: Combinatorial screen of targeted agents with the PI3K inhibitors inavolisib, alpelisib, duvelisib, and copanlisib in multi-cell type tumor spheroids
A high-throughput screen of multi-cell type tumor spheroids was designed to identify active combinations of targeted small molecules and PI3K pathway inhibitors. Complex spheroids include a stromal component modeled by human endothelial cells (HUVEC) and fibroblasts modeled by human mesenchymal stem cells (MSCs). The concentration ranges selected for each drug and investigational agent were based upon clinically achievable concentrations if the clinical Cmax of the agent was known.
Compounds. The drugs and investigational agents: inavolisib (NSC800729), alpelisib (NSC765974), duvelisib (NSC772469), copanlisib (NSC816437), ipatasertib (NSC767898), afuresertib (NSC778305), talazoparib (NSC767125), sapanisertib (NSC764658), selumetinib (NSC741078), tovorafenib (DAY101, NSC766906), vemurafenib (NSC761431), ravoxertinib (NSC781343), sotorasib (NSC818433), MRTX1133 (NSC 836407), abemaciclib (NSC 768073), palbociclib (NSC758247), venetoclax (NSC 766270), SY5609 (NSC837396), enzalutamide (NSC755605), and darolutamide (NSC825331), were obtained from the National Cancer Institute (NCI) Developmental Therapeutics Program Chemical Repository. The FDA-approved anticancer drug set is available from the NCI Developmental Therapeutics Program. […] The stock solutions were prepared in dimethyl sulfoxide (DMSO, Sigma-Aldrich, St. Louis, MO, cat. D2650) at 800-fold the tested concentration and stored at -70 degrees C prior to their use. All drugs and investigational agents were tested over a range starting from a high concentration at or near the clinical Cmax and decreasing in half-log increments. If the clinical Cmax for an agent had not been determined, the highest concentration tested was 10 microM.
Cell Culture. All cells were maintained in an incubator at 37 degrees C and 5% CO2 with 95% humidity. The PDC lines were cultured according to standard operating procedures established by the NCI PDMR (https://pdmr.cancer.gov/sops/default.htm). All PDCs were thawed and cultured in Matrigel-coated flasks prepared with a working solution of 1X Ham's F-12 nutrient mix, without supplementation (Invitrogen, Waltham, MA, cat. 11765054), 100 U/mL penicillin-streptomycin (Invitrogen, cat. 15140122), and 2.5% Matrigel (Corning Inc., Corning, NY, cat. 354248) for the first three passages. The 354836-022-R-J1-PDC, 475296-252-R-J1-PDC, and 997726-040-R-J2-PDC lines were cultured in 6A media, which includes advanced DMEM/F-12 (Thermo Fisher Scientific, cat. 12634028), 10 mM HEPES (Thermo Fisher Scientific, cat. 15630080), 1X GlutaMAX supplement (Thermo Fisher Scientific, cat. 35050061), 0.1 mg/mL primocin (InvivoGen, San Diego, CA, cat. ant-pm-2), 10% defined fetal bovine serum, heat inactivated (HyClone Laboratories Inc., Logan, UT, cat. SH30070.03HI), 50% L-WRN conditioned media (ATCC, cat. CRL-3276), 1.25 mM N-Acetyl-L-cysteine (Sigma-Aldrich, cat. A9165), 10 mM nicotinamide (Sigma-Aldrich, cat. N0636), 1X B-27 supplement (Thermo Fisher Scientific, cat. 17504044), 1X N-2 supplement (Thermo Fisher Scientific, cat. 17502048), and 10 microM Y-27632 dihydrochloride (Tocris Bioscience, Bristol, United Kingdom, cat. 1254). The 624824-186-R-J2-PDC line was cultured in 6C/Colon 1B media, which includes all 6A media components plus 50 ng/mL human EGF recombinant protein (Thermo Fisher Scientific, cat. PHG0311). […]

For orientation: viability, T/C means the ratio of treated to control. Turning to `Cc1nc(NC(=O)N2CCCC2C(N)=O)sc1-c1ccnc(C(C)(C)C(F)(F)F)c1` (stereo not drawn), the viability, T/C (compound alone 0.316 µM) was 97.7, 103, 107, 98.2, 112, 85.7, 76.3, 97.1%.
Turning to `C#Cc1c(F)ccc2cc(O)cc(-c3ncc4c(N5CC6CCC(C5)N6)nc(OCC56CCCN5CC(F)C6)nc4c3F)c12` (stereo not drawn), the viability, T/C runs as follows: (compound alone 0.0316 µM) 86.7, 89.7, 108, 112%; (compound alone 0.316 µM) 80.2, 101, 87.4, 107%; (compound alone 1 µM) 93, 96.2, 112, 119%.
Turning to `Cn1nccc1Nc1nccc(-c2ccn(C(CO)c3ccc(Cl)c(F)c3)c(=O)c2)n1` (stereo not drawn), the viability, T/C (compound alone 1 µM) is 121, 105, 101, 87%.
Turning to `C[C@@H](NC(=O)c1ncnc(N)c1Cl)c1ncc(C(=O)Nc2cc(C(F)(F)F)c(Cl)cn2)s1`, the viability, T/C (compound alone 0.1 µM) is on record as 105, 97.5, 78.8, 76.6% and the viability, T/C (compound alone 1 µM) is given as 83.2, 107, 111, 97.1%.
Regarding `Cn1cnc2c(F)c(Nc3ccc(Br)cc3Cl)c(C(=O)NOCCO)cc21`, where the note is “compound alone 0.03 µM”, the viability, T/C is 99.5, 105, 77.8, 99%.
Take `CC(Nc1ncnc2nc[nH]c12)c1cc2cccc(Cl)c2c(=O)n1-c1ccccc1` (stereo not drawn): the viability, T/C (compound alone 0.1 µM) was 82.5, 100, 112, 97, 91.5, 109, 105, 90%; the viability, T/C (compound alone 1 µM) is given as 99.6, 112, 92.4, 93.2, 100, 110, 117, 87.5%; the viability, T/C (compound alone 3.16 µM) was 96.8, 107, 84.1, 95.8, 120, 97.1, 105, 84.8%; the viability, T/C (compound alone 10 µM) is 97.4, 91.8 (2×), 90.4, 93, 104, 85.8, 77%.
Take `CCCS(=O)(=O)Nc1ccc(F)c(C(=O)c2c[nH]c3ncc(-c4ccc(Cl)cc4)cc23)c1F`: the viability, T/C (compound alone 3.16 µM) is recorded as 97.9, 73.6, 100, 85.5%.
Take `CC(=O)c1c(C)c2cnc(Nc3ccc(N4CCNCC4)cn3)nc2n(C2CCCC2)c1=O`: the viability, T/C by setting is: (compound alone 0.00316 µM) 76.7, 82.3, 89.2, 104%; (compound alone 0.01 µM) 76.4, 103, 72.7, 104%.
Regarding `COc1c(OCCCN2CCOCC2)ccc2c3n(c(=NC(=O)c4cnc(N)nc4)nc12)CCN3`, the viability, T/C (compound alone 0.00316 µM) was 77.7, 86.8, 88.7, 80.4, 81.3, 93.6, 92.5, 103%.
With `CC(Nc1ccc2c(c1)OCCn1cc(N3C(=O)OCC3C(F)F)nc1-2)C(N)=O` (stereo not drawn), the viability, T/C runs as follows: (compound alone 0.01 µM) 93.2, 98.5, 74.1, 101, 98.9, 99.7, 91.1, 87.1%; (compound alone 0.1 µM) 98, 103, 67.4, 92.9, 93.2, 95.6, 99.8, 90.1%.
Consider `Cn1ncc(Cl)c1-c1cc(C(=O)NC(CN)Cc2cccc(F)c2)sc1Cl` (stereo not drawn), for which the viability, T/C (compound alone 0.1 µM) is given as 71.4, 93.4, 94.9, 98%.
Consider `CC(C)n1nc(-c2ccc3oc(N)nc3c2)c2c(N)ncnc21`, for which the viability, T/C (compound alone 0.01 µM) is listed as 113, 105, 87.5, 93.1%.
Turning to `Cn1ncnc1[C@H]1c2n[nH]c(=O)c3cc(F)cc(c23)N[C@@H]1c1ccc(F)cc1`, the viability, T/C is 103, 57.2, 94.7, 120% (compound alone 0.00316 µM) and 95.3, 72, 87.4, 116% (compound alone 0.1 µM).
For the compound `C=CC(=O)N1CCN(c2nc(=O)n(-c3c(C)ccnc3C(C)C)c3nc(-c4c(O)cccc4F)c(F)cc23)C(C)C1` (stereo not drawn), the viability, T/C is recorded as 95.3, 98, 79.8, 108% (compound alone 0.316 µM); 98.4, 88, 99.4, 124% (compound alone 3.16 µM); 104, 85.7, 108, 133% (compound alone 10 µM).
In the case of `CC1(C)CCC(CN2CCN(c3ccc(C(=O)NS(=O)(=O)c4ccc(NCC5CCOCC5)c([N+](=O)[O-])c4)c(Oc4cnc5[nH]ccc5c4)c3)CC2)=C(c2ccc(Cl)cc2)C1`, the viability, T/C (compound alone 1 µM) is 97.8, 90.9, 105, 75.7%; the viability, T/C (compound alone 3.16 µM) is on record as 89.7, 71, 83.5, 108%; the viability, T/C (compound alone 10 µM) was 82, 57.1, 67.3, 97.1%.
